Test [1] has as its system HSkMC (human skeletal muscle cells). Nature of the test: cytotoxicity call (relative viability < 0.9). Conditions: 10 µM.
In test [2] the test system is HepG2. Nature of the test: cytotoxicity call (relative viability < 0.9). Conditions: 10 µM.
The subject of test [3] is S. aureus RN4220. Nature of the test: growth inhibition call (relative growth <= 0.2). Conditions: 50 µM.

The other results are listed elsewhere or left out.

The source of these data is the antibiotic and cytotoxicity screens of Wong et al. (2023).

For `Cc1ccc(S(=O)(=O)N(C)C[C@H]2Oc3ncc(C#CC4(O)CCCC4)cc3C(=O)N([C@H](C)CO)C[C@H]2C)cc1`, the cytotoxicity call in test [1] and in test [2] was “inactive” in each case. In addition, in test [3], the growth inhibition call was “inactive”.
As for `C[C@@H]1CCCCO[C@H](CN(C)Cc2ccc(C(F)(F)F)cc2)[C@@H](C)CN([C@H](C)CO)C(=O)c2cc(NS(=O)(=O)c3ccc(F)cc3)ccc2O1`, the cytotoxicity call in test [1] and in test [2] was “inactive” in each case. For the same compound, in test [3], the growth inhibition call is “inactive”.
Consider `C[C@H](CO)N1C[C@H](C)[C@H](CN(C)C(=O)Nc2ccccc2)Oc2ncc(-c3cccc(C(F)(F)F)c3)cc2C1=O`, for which the cytotoxicity call in test [1] and in test [2] was “inactive” in each case. The growth inhibition call in test [3] was “inactive”.
`CC(C)NC(=O)N(C)C[C@@H]1Oc2ccc(NC(=O)Cc3ccccc3)cc2C(=O)N([C@@H](C)CO)C[C@H]1C`: the cytotoxicity call in test [1] and in test [2] was “inactive” throughout. In addition, the growth inhibition call in test [3] is “inactive”.
As to `C[C@H](CO)N1C[C@H](C)[C@@H](CN(C)S(=O)(=O)c2ccccc2)Oc2c(NS(=O)(=O)c3ccccc3)cccc2C1=O`, the cytotoxicity call in test [1] and in test [2] was “inactive” throughout. Moreover, the growth inhibition call in test [3] was “inactive”.
With `COc1cccc(-c2ccc3c(c2)O[C@@H](CN(C)Cc2cncnc2)[C@H](C)CN([C@@H](C)CO)S3(=O)=O)c1`, the cytotoxicity call in test [1] and in test [2] was “inactive” in each case. In addition, the growth inhibition call in test [3] is “inactive”.
`O=C(CCCCCCC(=O)Nc1ccc([C@H]2O[C@@H](CSc3nc(-c4ccccc4)c(-c4ccccc4)o3)C[C@@H](c3ccc(CO)cc3)O2)cc1)NO`: the cytotoxicity call in test [1] and in test [2] was “inactive” throughout. Moreover, in test [3], the growth inhibition call was “inactive”.
As to `CC(C)(C)NCc1ccsc1`, the cytotoxicity call in test [1] and in test [2] was “inactive” each time. In addition, the growth inhibition call in test [3] was “inactive”.
Turning to `C[n+]1c2cc(N)ccc2cc2ccc(N)cc21.[Cl-]`, the cytotoxicity call in test [1] was “inactive”. Moreover, the cytotoxicity call in test [2] was “active”. The growth inhibition call in test [3] was “inactive”.
In the case of `O=C(C[C@H]1CC[C@H]2[C@@H](COC[C@@H](O)CN2S(=O)(=O)c2cccc(Cl)c2)O1)NCc1ccncn1`, the cytotoxicity call in test [1] and in test [2] was “inactive” each time. Besides, the growth inhibition call in test [3] is “inactive”.
Turning to `O=C(CCCCCCC(=O)N/N=C/[C@H](O)[C@@H](O)[C@H](O)CO)NO`, the cytotoxicity call in test [1] and in test [2] was “inactive” throughout. The growth inhibition call in test [3] is “inactive”.
Consider `CO[C@H]1CN(C)C(=O)c2cc(NC(=O)Nc3ccccc3F)ccc2OC[C@H](C)N(Cc2ccccc2C(=O)O)C[C@H]1C`, for which the cytotoxicity call in test [1] and in test [2] was “inactive” throughout. Moreover, the growth inhibition call in test [3] was “inactive”.
As to `OCc1cccc(Cn2cncn2)c1`, the cytotoxicity call in test [1] and in test [2] was “inactive” throughout. The growth inhibition call in test [3] is “inactive”.
Consider `CC(C)NC(=O)N(C)C[C@H]1OCCCC[C@H](C)Oc2ccc(NC(=O)Nc3cccc4ccccc34)cc2C(=O)N([C@@H](C)CO)C[C@H]1C`, for which the cytotoxicity call in test [1] and in test [2] was “inactive” throughout. Also, the growth inhibition call in test [3] was “inactive”.
As for `C[C@@H]1CN([C@@H](C)CO)C(=O)Cc2cc(NC(=O)c3ccncc3)ccc2O[C@@H]1CN(C)Cc1ccncc1`, the cytotoxicity call in test [1] and in test [2] was “inactive” each time. The growth inhibition call in test [3] is “inactive”.
Take `COC(=O)C1=C(C)NC(C)=C(C(=O)OC(C)(C)CN(C)CCC(c2ccccc2)c2ccccc2)[C@@H]1c1cccc([N+](=O)[O-])c1`: the cytotoxicity call in test [1] was “active”. Also, the cytotoxicity call in test [2] was “inactive”. Moreover, the growth inhibition call in test [3] was “inactive”.
On to `CC(C)NC(=O)Nc1ccc2c(c1)CC(=O)N([C@H](C)CO)C[C@@H](C)[C@H](CN(C)C(=O)NC1CCCCC1)O2`, for which the cytotoxicity call in test [1] and in test [2] was “inactive” in each case. Further, the growth inhibition call in test [3] was “inactive”.
On to `C[C@@H]1CCCCO[C@H](CN(C)CC2CC2)[C@H](C)CN([C@@H](C)CO)C(=O)c2cc(NC(=O)Nc3cccc4ccccc34)ccc2O1`, for which the cytotoxicity call in test [1] and in test [2] was “inactive” each time. Besides, in test [3], the growth inhibition call was “inactive”.
On to `Cc1noc(C)c1NC(=O)N(C)C[C@@H]1Oc2c(NC(=O)c3ccc(-c4nccs4)cc3)cccc2C(=O)N([C@H](C)CO)C[C@H]1C`, for which the cytotoxicity call in test [1] and in test [2] was “inactive” each time. The growth inhibition call in test [3] is “inactive”.
In the case of `C[C@H](CO)N1C[C@H](C)[C@@H](CN(C)C(=O)NC2CCCC2)Oc2cc(-c3cccnc3)ccc2S1(=O)=O`, the cytotoxicity call in test [1] and in test [2] was “inactive” each time. In addition, the growth inhibition call in test [3] is “inactive”.
As for `C[C@H]1CCCCO[C@@H](CN(C)C(=O)NC2CCCCC2)[C@@H](C)CN([C@@H](C)CO)C(=O)c2cc(NC(=O)c3ccncc3)ccc2O1`, the cytotoxicity call in test [1] and in test [2] was “inactive” throughout. Besides, in test [3], the growth inhibition call is “inactive”.
`COCC(=O)N(C)C[C@@H]1Oc2cc(C#C[C@H](C)O)ccc2S(=O)(=O)N([C@H](C)CO)C[C@@H]1C`: the cytotoxicity call in test [1] and in test [2] was “inactive” each time. Moreover, in test [3], the growth inhibition call is “inactive”.
Take `C[C@@H]1CN([C@@H](C)CO)C(=O)c2cccc(NC(=O)C3CC3)c2O[C@H]1CN(C)C(=O)Nc1ccc2c(c1)OCO2`: the cytotoxicity call in test [1] and in test [2] was “inactive” in each case. Also, the growth inhibition call in test [3] was “inactive”.
For `C[C@@H]1CN([C@@H](C)CO)C(=O)c2cc(NC(=O)c3ccncc3)ccc2O[C@@H](C)CCCCO[C@@H]1CN(C)C(=O)Nc1ccccc1`, the cytotoxicity call in test [1] and in test [2] was “inactive” each time. In addition, the growth inhibition call in test [3] is “inactive”.
As to `C[C@@H]1CCCCO[C@@H](CN(C)Cc2ccc(C(=O)O)cc2)[C@H](C)CN([C@H](C)CO)C(=O)c2cc(NC(=O)NC3CCCCC3)ccc2O1`, the cytotoxicity call in test [1] and in test [2] was “inactive” throughout. In test [3], the growth inhibition call was “inactive”.
Regarding `C[C@H]1CCCCO[C@H](CN(C)S(=O)(=O)c2ccccc2)[C@@H](C)CN([C@@H](C)CO)C(=O)c2cc(NS(C)(=O)=O)ccc2O1`, the cytotoxicity call in test [1] and in test [2] was “inactive” each time. For the same compound, the growth inhibition call in test [3] is “inactive”.
Turning to `CC(C)c1nc(/N=C/N(C)C)nc(=O)n1C`, the cytotoxicity call in test [1] and in test [2] was “inactive” in each case. In addition, in test [3], the growth inhibition call is “inactive”.
